# Measurements: PubChem BioAssay AID504832 (National Center for Advancing Translational Sciences (NCATS), 2011)
# The whole screen tested about 310,000 compounds, of which about 18,000 (5.8%) were called active. The inconclusive results got no clear call from the source; some entries with a clear call stand among them for comparison. Calls follow the shape of the dose curve; as a rule, active = well fitted inhibition curve with a large enough effect; inconclusive = small, poorly fitted or top-dose-only effect, or another doubt; inactive = no such curve, though single readings can be large or run the other way. No potency is given beside an inconclusive call; the fits are too rough.
# Experiment: Primary qHTS for delayed death inhibitors of the malarial parasite plastid, 48 hour incubation
# Settings: P. falciparum luciferase growth in erythrocytes; series mostly up to 28.7 µM
# How it was run: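 Luminescence readout; reporter = integrated firefly luciferase in P. falciparum. RBC culture at 2% hematocrit, 0.1% parasitemia final, 37 C/5% CO2; decreased signal taken as growth inhibition.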
# Potency is read from the fitted curve at half-maximal effect; tags tell the direction and shape of the fitted curve.
row,SMILES,Potency
1,COc1cc(OC)cc(C(=O)Nc2ccc(NC(=O)c3ccco3)c(C)c2)c1,inactive
2,O=c1[nH]nc(Cc2ccc(-c3cccc(Cl)c3)o2)c2ccccc12,"inconclusive [inhibitor, single point]"
3,COCCN(C(=S)Nc1cc(C)cc(C)c1)C(C)c1cccs1 (stereo not given),"inconclusive [inhibitor, single point]"
4,Cn1c(NC(=S)Nc2ccccc2)nc2ccccc21,"inconclusive [inhibitor, full curve]"
5,Cc1cc(=O)oc2c3c(cc(OCC(=O)NCc4ccncc4)c12)OC(C)(C)CC3,"inconclusive [inhibitor, partial curve, poor fit]"
6,CC(C)c1ccc(NC(=O)[C@H](Cc2c[nH]c3ccccc23)NC(=O)[C@@H]2Cc3ccccc3CN2)cc1,"inconclusive [inhibitor, single point]"
7,CCC1=NN2C(=N)/C(=C/c3ccc(OS(=O)(=O)c4ccccc4)cc3)C(=O)N=C2S1,"inconclusive [inhibitor, single point]"
8,CC(=O)c1cccc(-c2csc(N3CCC(C(N)=O)CC3)n2)c1,"inconclusive [activator, partial curve, poor fit]"
9,CN(C)/C=C(\C#N)C(=O)N/N=C/c1ccccc1,inactive
10,COc1ccc2c(c1)c(CC(=O)Nc1cccc(S(N)(=O)=O)c1)c(C)n2C(=O)c1ccc(Cl)cc1,"inconclusive [inhibitor, partial curve, poor fit]"
11,Nc1nc(-c2ccc3c(c2)CCCC3)c(CC(=O)O)s1,inactive
12,CCN(CC)C(=O)CN1C(=O)C2(OCC(C)(c3ccccc3)CO2)c2ccccc21 (stereo not given),"inconclusive [inhibitor, single point]"
13,C/C(=N\NC(=O)c1nn(C)c(C)c1Br)c1ccc(NC(=O)c2ccccc2F)cc1,inactive
14,CCOC(=O)CC(=O)CSc1nc2ccc(OC)cc2cc1C,"inconclusive [inhibitor, single point]"
15,Cc1cc(=O)n2nc(N3CCCC(C(=O)N4CCOCC4)C3)sc2n1 (stereo not given),inactive
16,COc1ccc([C@H]2CC(=O)C=C(c3ccc(OC)c(F)c3)C2)cc1,"inconclusive [inhibitor, single point]"
17,CCc1ccccc1NC(=O)CSc1nnc(Cn2nnc3ccccc32)n1C,inactive
18,CCCN1C(=O)/C(=C2\SC(N3CCCCC3)=NC2=O)c2ccccc21,"inconclusive [inhibitor, single point]"
19,Cc1cc(C)c(S(=O)(=O)ON2C(=O)c3ccccc3C2=O)cc1C,inactive
20,CCOC(=O)C1CCN(Cc2nc(-c3ccc(OC)c(OC)c3)no2)CC1,"inconclusive [inhibitor, single point]"
21,COc1ccc(-n2cnc3cc(N)ccc32)cc1,"inconclusive [inhibitor, single point]"
22,COc1ccc(CN(C(=O)c2cnccn2)C(C(=O)Nc2ccc(F)cc2)c2ccccc2)cc1 (stereo not given),"inconclusive [inhibitor, single point]"
23,CC(C)COP(=O)(c1ccc(N(C)C)cc1)C(O)c1ccc(N(C)C)cc1 (stereo not given),"inconclusive [inhibitor, single point]"
24,CCOc1ccc2oc(C(=O)NC3CCN(Cc4ccccc4)CC3)c(C)c2c1,inactive

row,SMILES,Potency
1,Cc1csc(SCC(=O)Nc2ccc(C)c(F)c2)n1,inactive
2,CCCNC(=S)Nc1ccc(Cl)cc1C,inactive
3,Cc1cccc2nc(-c3ccco3)oc(=O)c12,"inconclusive [inhibitor, partial curve, poor fit]"
4,O=C(CNc1ccc(F)cc1)N/N=C1\CCc2ccccc21,"inconclusive [inhibitor, single point]"
5,CC1SC(C)C(=O)N(CC(=O)NCc2ccc(F)cc2)C1=O (stereo not given),inactive
6,CCS(=O)(=O)N1CCN(c2ccc(C(=O)NC3C4CC5CC(C4)CC3C5)cc2[N+](=O)[O-])CC1 (stereo not given),active: 11.7 µM
7,CCOC(=O)c1ccccc1NC(=O)c1cn(-c2ccc(OC)cc2)c(=O)c2ccccc12,"inconclusive [inhibitor, single point]"
8,O=C(COC(=O)C1=COCCO1)NCc1ccc(F)cc1,"inconclusive [inhibitor, single point]"
9,CCCN(CCC)CCCNC(=S)Nc1ccc2nc(N3CCCC3)cc(C)c2c1,active: 1.47 µM
10,COc1ccc(CCn2c(=N)c(C(=O)NC3CCCC3)cc3c(=O)n4cccc(C)c4nc32)cc1,active: 0.828 µM
11,CCN(CC)S(=O)(=O)c1ccc(OC)c(NC(=O)CSc2cc(C)ccc2C)c1,"inconclusive [inhibitor, partial curve, poor fit]"
12,COc1ccc(NC(=O)CSc2ccc3nnc(-c4cccnc4)n3n2)c(OC)c1,"inconclusive [inhibitor, single point]"
13,NC(=O)C1CCN(c2nc(-c3cccc(Cl)c3)cs2)CC1,"inconclusive [inhibitor, single point]"
14,Cc1ccc(C)c(N(CC(=O)NC2CCCC2)C(=O)c2oc(C(C)(C)C)cc2C)c1,"inconclusive [inhibitor, partial curve]"
15,CC(C(=O)Nc1ccc(C#N)cc1)N1CCN(C(=O)C2CC2)CC1 (stereo not given),inactive
16,C=C[C@@H]1c2ccccc2N(S(=O)(=O)c2ccc(C)cc2)[C@H](c2ccc(C(F)(F)F)cc2)C1(C#N)C#N,"inconclusive [inhibitor, partial curve]"
17,C#CC(CC)(CC)NC(=O)c1cc(S(=O)(=O)N2CCCCC2)ccc1N1CCOCC1,"inconclusive [inhibitor, partial curve]"
18,Cc1ccc(OCC(=O)Nc2ccc(NC(=O)c3ccco3)cc2)c(C)c1,"inconclusive [inhibitor, single point]"
19,CCN(CC(=O)Nc1c(F)cccc1F)C(=O)CSc1nc(C)cc(C)n1,inactive
20,CC(=O)c1cccc(NC(=O)Nc2cccs2)c1,inactive
21,CCOC(=O)N1CCC(N2CCN(c3ccccc3)CC2)CC1,"inconclusive [inhibitor, single point]"
22,CCOC(=O)N/N=C/c1c(C)c(C(=O)c2ccc(F)cc2)n2ccccc12,"inconclusive [inhibitor, partial curve, poor fit]"
23,O=C1CCC2S/C(=C/Nc3ccc(C(F)(F)F)cc3)C(=O)N12 (stereo not given),inactive
24,CC(C)(C)c1nc(NCCO)c2nnn(Cc3ccccc3)c2n1,inactive

row,SMILES,Potency
1,COc1ccc(CCNC(=O)c2noc3c2CCCC3)cc1OC,inactive
2,O=C(/C=C/c1cc2c(cc1Br)OCO2)NCc1ccc(Cl)cc1,"inconclusive [inhibitor, full curve, poor fit]"
3,O=C(c1ccc(OC2CCN(Cc3ccccc3C(F)(F)F)CC2)cc1)N1CCCCC1,"inconclusive [inhibitor, single point]"
4,CC(C)n1c(O)c(N=NC(=O)CNC(=O)Cc2ccc(Cl)cc2)c2ccccc21,inactive
5,CCOC(=O)c1ccc(Oc2nc(N(C)C)nc(N3CCOCC3)n2)cc1,"inconclusive [inhibitor, single point]"
6,CN1C(=O)CSc2ccc(NC(=O)N3CCN(c4ccccn4)CC3)cc21,"inconclusive [inhibitor, partial curve]"
7,Cc1ccc(NC(=O)CSc2sc3c(O)cc(=O)[nH]c3c2C#N)cc1C,inactive
8,COc1ccc(N2CS(=O)(=O)/C(=C/N(C)C)C2=O)cc1,inactive
9,Cc1c(OCC(=O)NCCCN2CCOCC2)ccc2c3c(c(=O)oc12)CCCC3,"inconclusive [inhibitor, single point]"
10,O=C(CSc1nnc(-c2ccc(F)cc2)c2ccccc12)Nc1cccc(Cl)c1,"inconclusive [inhibitor, single point]"
11,CC(=O)c1ccc(N2CCN(C(=O)C3CCN(C(=O)Nc4ccccc4)CC3)CC2)cc1,"inconclusive [inhibitor, partial curve]"
12,O=C(NCCCn1ccnc1)c1cc(-c2ccc(Cl)cc2)nc2ccccc12,"inconclusive [inhibitor, full curve]"
13,FC(F)Oc1ccc(-c2csc(=Nc3cccnc3)n2CC2CCCO2)cc1 (stereo not given),"inconclusive [inhibitor, single point]"
14,COc1ccc(N2CC(C(=O)Nc3ccccc3C(=O)NCc3ccco3)CC2=O)cc1 (stereo not given),"inconclusive [inhibitor, single point]"
15,O=C1C=C(c2ccc(CO)cc2)C[C@@H](c2ccc3c(c2)OCO3)C1,inactive
16,COc1ccc(CCN2CCCC(CN(C)C(=O)c3ccoc3)C2)cc1 (stereo not given),inactive
17,Cn1c(-c2ccccn2)[n+](C)c2ccccc21,inactive
18,CCOc1ccc2c(c1)c(N=NC(N)=S)c(O)n2C,active: 9.28 µM
19,COC(=O)CCC(=O)OC1(C)C(=O)C2=CN(CCN3CCOCC3)C(c3ccc(OC)cc3)=CC2=C(Br)C1=O (stereo not given),"inconclusive [inhibitor, single point]"
20,Cc1ccc(C(=O)Nc2nnc(SCC(=O)N3CCCc4ccccc43)s2)cc1,"inconclusive [inhibitor, single point]"
21,O=C(c1ccc2c(=O)n3c(nc2c1)CCCCC3)N1CCN(c2ccccc2)CC1,inactive
22,O=[N+]([O-])c1ccc(C2C3C(c4ccccc4)=NC4(CCCCC4)N32)cc1 (stereo not given),"inconclusive [inhibitor, single point]"
